The source of these data is PubChem BioAssay AID1240 (Sanford-Burnham Center for Chemical Genomics, 2008).

Screen size: about 50,000 compounds; about 800 (1.6%) showed an effect of 50% or more. The list shows a part of the results.

In the test the target is Bcl-2-like protein 10 (Homo sapiens) (UniProt Q9HD36). The test can be described thus: TR3 peptide-Bcl-B binding displacers, biochemical primary FP assay, phenotype converters (AID 1240).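 Note: 0% = Bcl-B with tracer peptide and DMSO and 100% = tracer peptide lacking Bcl-B.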 The conditions noted are these: GST-Bcl-B / FITC-TR3 peptide fluorescence polarization; stronger effect = higher value; compound at 3.75 mg/L. A general note: Polarisation of emitted light reports the rotation of a fluorescent probe.
UniProt Q9HD36, sequence (Q9HD36 whole entry, looked up): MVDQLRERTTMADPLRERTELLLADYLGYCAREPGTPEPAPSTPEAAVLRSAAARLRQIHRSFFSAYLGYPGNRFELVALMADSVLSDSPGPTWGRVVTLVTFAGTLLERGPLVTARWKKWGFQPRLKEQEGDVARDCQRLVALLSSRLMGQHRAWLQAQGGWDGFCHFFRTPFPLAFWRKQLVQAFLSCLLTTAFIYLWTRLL
Regarding `COc1cc(/C=N/n2cnnc2)ccc1OCCSc1ccc(C)cc1`, the displacement is 0.6%.
Under `O=C(CCNc1ccc(Cc2ccncc2)cc1)c1cccc([N+](=O)[O-])c1` stands -6.2%.
On to `Cc1ccc2c(C)nc(Nc3nc(O)c(C)c(=O)[nH]3)nc2c1`, for which the displacement amounted to 2.3%.
Regarding `COc1ccc(S(=O)(=O)N(CC(=O)Nc2cccc(Cl)c2)Cc2ccccc2)cc1OC`, the displacement was 15.9%.
Under `CCOc1ccc(-n2nc3ccc(NC(=O)/C=C/c4ccco4)cc3n2)cc1` stands 11.2%.
As to `CC(Oc1ccccc1)C(=O)Nc1cccc(C(=O)Nc2ccccc2Cl)c1` (configuration not stated), the displacement came to 2.9%.
The figure for `COc1ccccc1/C=N/NC(=O)C(=O)NCc1ccccn1` is -10.6%; for `CC(C(=O)Nc1ccc(NC(=O)c2cccc(Cl)c2)cc1)(c1ccccc1)c1ccccc1` it is -5.2%; for `CCOC(=O)C1=C(C)N=c2s/c(=C\c3ccc(-c4ccccc4C(=O)O)o3)c(=O)n2C1c1cc(OC)ccc1OC` (configuration not stated) it is -1.1%.
Under `O=[N+]([O-])c1cccc(-c2n[nH]c(-c3ccccc3)c2-c2nc3ccccc3[nH]2)c1` stands 5.1%.
Under `CCOC(=O)c1c(NC(=S)Nc2ccccc2)sc(C)c1C` stands 12.2%; under `Cc1onc(-c2ccccc2Cl)c1C(=O)N1CCN(Cc2ccc3c(c2)OCO3)CC1`, -3.3%.
Regarding `Cc1ccc(NC(=O)c2ccc(Cl)cc2)cc1Cl`, the displacement was -0.2%.
The figure for `CSc1nc2ccc(N3C(=O)C4CCCCC4C3=O)cc2s1` (configuration not stated) is 4.6%.
The figure for `CC1=NN(c2nc(-c3ccc(Cl)c(Cl)c3)cs2)C(=O)C1` is 11.4%; for `Cc1nc(C)c(/C(O)=C/c2nc3ccccc3[nH]c2=O)s1` it is 61.6%.
`CCCc1cc(=O)n2[nH]c(-c3cccs3)cc2n1`: the displacement is 12%.
Under `COc1ccc(/C=C/C(=O)O)cc1S(=O)(=O)N1CCCCCC1` stands 2.4%; under `O=C(Nc1ccc(Cl)cc1)N1CCCc2ccccc21`, 11.3%; under `O=C(Nc1ccc(Cl)c(-c2nc3ccccc3s2)c1)c1ccc([N+](=O)[O-])o1`, -1.9%.
Under `COc1ccc(N(CC(=O)Nc2cccc(Br)c2)S(=O)(=O)c2ccc(C)cc2)c(OC)c1` stands -1.5%.
The figure for `COc1ccc(OCC(=O)Nc2ccc(S(=O)(=O)N3CCCCC3)cc2)cc1` is -6.9%; for `O=C(O)CSc1nnc(-c2ccc(Cl)cc2Cl)n1-c1ccc(Cl)cc1` it is 3.9%; for `O=S1(=O)CCC(NC(=S)N/N=C/c2ccc(Cl)c(Cl)c2)C1` (configuration not stated) it is 0.4%.
Regarding `COc1cccc(C(=O)Nc2ccc3c(c2)OCO3)c1`, the displacement is -8.2%.
The figure for `CCOC(=O)c1ccc(NC(=O)C(=O)NCCCOC)cc1` is -5.9%; for `O=C1/C(=C\c2ccc(-c3ccc(Cl)c(Cl)c3)o2)SC(=S)N1Cc1ccco1` it is -19.5%.
Under `CC1CC(Nc2ccccc2)c2ccccc2N1C(=O)c1cccc2ccccc12` (configuration not stated) stands -1.7%; under `O=C(CSc1ccccn1)Nc1ccc2nc(SCC(=O)Nc3ccccc3F)sc2c1`, -20.6%; under `COC(=O)c1ccc(N2C(=O)CC(SCCN)C2=O)cc1` (configuration not stated), -6.8%.
Under `COc1cccc(/C=N/NC(=O)CC#N)c1` stands 4.8%.
As to `CCOC(=O)c1ccc2c(c1)C1C=CCC1C(c1ccc(Cl)cc1Cl)N2` (configuration not stated), the displacement was -3.9%.
In the case of `COc1cc(/C=N/NC(=O)/C(=C\C=C\c2ccccc2)NC(=O)c2ccccc2)cc(OC)c1O`, the displacement was -2.3%.
The figure for `O=C(N/N=C\c1ccc(OC(=O)c2ccc3c(c2)OCO3)cc1)c1ccc([N+](=O)[O-])cc1` is 6.9%.
Under `Cc1cccc(NC(=O)CCC(=O)N/N=C/c2cccs2)c1` stands 4.2%; under `Cc1ccc(Cl)cc1N(Cc1ccc(C(=O)N(C(C)C)C(C)C)cc1)S(=O)(=O)c1ccccc1`, -2.8%; under `COc1ccc(C2=NCCNC(C(F)(F)F)=C2)cc1`, -4.5%.
`CCOc1ccccc1/C=N/NC(=O)c1cccc(Cl)c1`: the displacement is -7.2%.
Turning to `Cc1cc(C=C2C(=O)NC(=O)NC2=O)c(C)n1-c1ccc(N2CCOCC2)cc1`, the displacement worked out at 126%.
The figure for `COC(=O)c1ccc(NC(=S)NC(=O)c2ccc(OC)cc2)cc1` is 14.9%; for `Cc1ccccc1C(=O)N1c2c(C)cccc2C(Nc2ccccc2)CC1C` (configuration not stated) it is 11%; for `C=CCc1ccccc1OCc1nnc(NC(=O)Nc2ccccc2)s1` it is 1.2%.
Under `CCOc1ccccc1/C=C1/C(=O)NC(=O)N(c2ccc(C)cc2)C1=O` stands -7.8%; under `COC(=O)COc1ccc(/C=C2\C(=O)NC(=O)N(c3ccc(Cl)cc3)C2=O)cc1OC`, -14.2%.
Consider `O=C(c1ccc([N+](=O)[O-])cc1)N1CCN(C(=O)c2ccccc2F)CC1`, for which the displacement turned out to be 12.3%.
The figure for `COc1cc(/C=C/C(=O)c2ccc(F)cc2)cc(OC)c1OC` is -6.9%; for `Cc1cc(OCC(F)(F)C(F)(F)C(F)(F)C(F)F)nc(N)n1` it is 3%; for `O=C(CSc1nnc(-c2ccc(Cl)cc2Cl)o1)NC1CCCCC1` it is -7%.
Regarding `COc1ccccc1C(=O)Nc1nc(-c2ccccc2)c(-c2ccc([N+](=O)[O-])cc2)s1`, the displacement is 1.2%.
As for `CCOC(=O)c1c(C)n(-c2ccc(OC)cc2)c2ccc(O)cc12`, the displacement came out at 7.9%.
Under `COc1ccc(/C=N/N(C)C2=NS(=O)(=O)c3cc([N+](=O)[O-])ccc32)cc1` stands 7.6%; under `CCOc1ccc(N(CC(N)=O)S(=O)(=O)c2ccc(SC)cc2)cc1`, 6.4%; under `COc1ccccc1N/N=C(/C#N)C(N)=S`, 7.8%.
The figure for `O=C(Nc1ccc(F)cc1)c1sc2cc(Cl)ccc2c1Cl` is 10.4%; for `O=C(CCN1C(=O)c2ccccc2C1=O)N1CCN(c2ccccc2)CC1` it is -4.2%.
On to `CN(C)c1ccc(C(NC(=O)Cc2ccccc2)c2c(O)ccc3ccccc23)cc1` (configuration not stated), for which the displacement is -2.1%.
For the compound `CC(=O)C1=C(O)C(=O)N(c2ccccn2)C1c1cccnc1` (configuration not stated), the displacement is -4.1%.
Under `CCN(CC)S(=O)(=O)c1cccc(C(=O)Nc2ccc(Cl)cc2)c1` stands -12%; under `COc1ccc(CCNC(=O)C(=O)Nc2ccc(Cl)c(Cl)c2)cc1OC`, 5.5%.
The figure for `CCCN1C(=O)c2ccccc2NC1c1ccc(Cl)cc1Cl` (configuration not stated) is 9.1%.
Under `CCN(CC)S(=O)(=O)c1ccc2c(c1)C(=Cc1ccccc1)c1cc(S(=O)(=O)N(CC)CC)ccc1-2` stands 3.4%.
As to `O=[N+]([O-])c1ccc(OCCCCCN2CCCCC2)cc1`, the displacement was determined as 11.6%.
The figure for `CCN(CC)c1ccc(NS(=O)(=O)c2cc(Cl)ccc2Cl)cc1` is 23%; for `COc1ccc(OC)c(/C=C/C(=O)Oc2cc(C)cc(C)c2)c1` it is 11.8%.
The figure for `Oc1ccc(/C=N/Nc2nncc(-c3ccccc3)n2)c(O)c1` is -1.6%; for `O=C(COc1cccc(Cl)c1)NCCc1ccccc1` it is -3.2%; for `CCOC(=O)COc1ccc(/C=C(\C#N)c2nc3ccccc3[nH]2)cc1OC` it is 8.1%.
The figure for `CCOc1ccc(C(=O)Nc2cccc(-c3nc4cc(C)c(C)cc4o3)c2)cc1` is 9.1%.
For `O=C(CN(CCc1ccccc1)S(=O)(=O)c1ccc(Br)cc1)NCc1ccccn1`, the displacement turned out to be 8.5%.
With `COc1cc(C(=O)NN=C2CCCCCC2)cc(OC)c1OC`, the displacement worked out at 2.4%.
Under `O=C(CSc1nnnn1-c1ccccc1)CSc1nnnn1-c1ccccc1` stands -5.4%; under `Cc1ccc(-c2nc3ccccc3s2)cc1NC(=O)COc1ccccc1[N+](=O)[O-]`, 8.4%.
The figure for `COc1ccc2oc(=O)c(C(=O)NC3CCCCC3)cc2c1` is -2.3%; for `COc1ccc(CNC(=O)c2ccc(C)c([N+](=O)[O-])c2)cc1` it is -17.8%.
As for `Cc1ccc(OCC(=O)Nc2cccc(C(F)(F)F)c2)c(C)c1`, the displacement came to 7.3%.
Under `CCOc1ccc2oc(C)c(C(=O)O)c2c1` stands 8.8%; under `CCOC(=O)c1c(NC(C)=O)sc(C)c1-c1ccccc1`, -1.3%.
The figure for `C/C(=N\NC(=O)CNC(=O)COc1ccccc1)c1ccccc1` is 6.3%; for `CC1(C)NN(c2ccccc2)C(=S)N1CN1CCOCC1` it is 55.9%; for `O=C(O)CCC(C(=O)O)n1c(O)c(C2=c3ccccc3=NC2=O)sc1=S` (configuration not stated) it is -2%.
Under `O=C(N/N=C/C(Br)=C/c1ccccc1)C(O)(c1ccccc1)c1ccccc1` stands -18.7%; under `CC(=O)c1c(C)n(O)c2ccc(Cl)cc2c1=O`, 5.6%.
Consider `CCOc1cc(/C=C2/NC(=S)NC2=O)cc(Cl)c1OCC`, for which the displacement was -5.8%.
Under `Cc1ccc(S(=O)(=O)NCCC(=O)NC(C)(C)C)cc1` stands -6.9%; under `O=C(NCc1ccco1)c1ccc(-c2ccc(Cl)cc2Cl)o1`, 5.2%.
The figure for `CCOC(=O)c1ccc(NC(=O)CN(c2ccc(OC)cc2OC)S(C)(=O)=O)cc1` is 4.9%; for `O=C(Nc1ccc(S(=O)(=O)N2CCc3ccccc32)cc1)c1cccc([N+](=O)[O-])c1` it is 2.1%; for `COc1cccc(/C=N\N2CCN(c3ccccc3)CC2)c1OC` it is 2.5%.
Under `CCCOP(=O)(OCCC)C(Nc1ccc(Cl)cc1)c1ccc(Br)cc1` (configuration not stated) stands 17.1%.
In the case of `Cc1ccc(S(=O)(=O)N(Cc2ccccc2)c2ccccn2)cc1[N+](=O)[O-]`, the displacement is -9.3%.
On to `O=C(Nc1ccc(Cl)cc1)C(=O)NC1CC1`, for which the displacement was 0.3%.
The figure for `CCOc1ccccc1NC(=O)CN(c1ccc(C)c(Cl)c1)S(C)(=O)=O` is 0%; for `CCOC(=O)c1c(NC(=O)c2cccc(F)c2)sc(C(=O)Nc2ccc(OC)cc2OC)c1C` it is 0.5%.
As to `CCSC(C)CC1CC(=O)CC(=O)C1C(=O)OC` (configuration not stated), the displacement was 3.7%.
Under `O=C(Nc1c[nH]c(=O)[nH]c1=O)c1ccc2c(c1)C(=O)N(N1C(=O)c3ccccc3C1=O)C2=O` stands -1.6%; under `COc1ccc(N/N=C(/C#N)C(=N)N2CCOCC2)cc1`, 3.7%; under `CN1CCN(CCOCCOc2ccc(Cl)cc2)CC1`, -7.3%.
The figure for `CCC(SC1=NCCS1)C(=O)N1c2ccccc2Sc2ccccc21` (configuration not stated) is -8.8%; for `Cc1ccc(Cl)cc1NC(=O)c1c(-c2c(Cl)cccc2Cl)noc1C` it is -9.1%.
The figure for `Cc1ccc(-n2c(SCCc3ccccc3)nc3sc4c(c3c2=O)CC(C)(C)OC4)cc1` is 6.5%; for `COC(=O)c1c(NC(=O)COc2ccc(-c3ccc(C)cc3)cc2)sc2c1C(C(=O)OC)CC2` (configuration not stated) it is -8%.
For `CCOC(=O)C(=O)Nc1ccc([N+](=O)[O-])cc1OC`, the displacement is -0.6%.
The figure for `COc1cccc2c1CC/C(=C\c1ccccc1)C2=O` is 15.5%; for `CCOC(=O)c1sc(NC(=O)c2cnccn2)c(C(=O)OCC)c1C` it is 1.1%; for `CC(C)NC(=O)CN(c1ccc(Oc2ccccc2)cc1)S(C)(=O)=O` it is 1.8%.
Under `CC(C)CC(=O)NC(NC(=S)Nc1ccccc1Br)C(Cl)(Cl)Cl` (configuration not stated) stands -3.4%; under `Cc1c(N2C(=O)/C(=C/c3ccc(-c4ccccc4Cl)o3)SC2=S)c(=O)n(-c2ccccc2)n1C`, 34%.
